# In article PMC12136788:
# This is one part of the list.
# T1: UNK ZnF1-3 (human, UniProt Q9C0B0 31-174)
# T1 sequence: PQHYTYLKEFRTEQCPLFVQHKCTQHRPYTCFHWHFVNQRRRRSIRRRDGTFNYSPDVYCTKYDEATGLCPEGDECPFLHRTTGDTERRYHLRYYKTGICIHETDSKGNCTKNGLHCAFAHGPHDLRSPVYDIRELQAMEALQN
# B1: 87408211_87419820_547_CDS_ENSMUSG00000024145_ENSMUST00000024957|mouse|control|control (ssRNA)
# RNA: GGGAGUUCUACAGUCCGACGAUCUGUAGUGAUCUGAAGACUAUUCUCCCAAAUAGAUGUAACUCCAUUUCUACUGAAAACUCUCAGCCAUGCUUUGAGGUUUGGUCCUAACAAACAGAGACAAGGUACUGUAGUAAAAGUAGACAACAGAGGAUUGAGCAUCA
# B2: chr2:198351390:198351391:-_ENSG00000144381_ENST00000345042|hu_hu|hu_hu_hu_mus_False|1_18 (ssRNA)
# RNA: GGGAGUUCUACAGUCCGACGAUCUCAUUCCCACCCUCCACAGAAAGGCUGCUUCUGAACUCUCAUGUGGUGACACAGCGCUACAGUCCUGAUGCUCACAGAACAGUAGAGAUGCCUCCUCAGUGAUAGUUGAAAGCAGCAGUACAACAGAGGAUUGAGCAUCA
# B3: chr9:95013113:95013114:-_ENSG00000196305_ENST00000443024|hu_hu|hu_hu_hu_mus_False|1_108 (ssRNA)
# RNA: GGGAGUUCUACAGUCCGACGAUCCUCAGUGAGAAAAGGCGUGUAAGGGGCCAUCAGUCUGCACAGAGAAAGCAGGACACUGAACAGUGUCUCCAGAGCCAUGACACAGUCUUCCACCCCACUCUCACCCUUUAACCUUCUGCGCAACAGAGGAUUGAGCAUCA
# B4: chr7:149068622:149068623:-_ENSMUSG00000025139_ENSMUST00000001950|mus_hu|mus_mus_mus_hu_False|28_68 (ssRNA)
# RNA: GGGAGUUCUACAGUCCGACGAUCGUGAGGCCUCUGAGUGUGGCUUGUGGUCUGUCCUGGGUUAGAGCUGCUGGUAACACGGAACAUACCAUCUAGAACGUUCCAGUCUGCCUGACUACCUUCAUUCCCAAUGGAGAAGAAAUCCAACAGAGGAUUGAGCAUCA
# B5: chr4:107908409:107908410:-_ENSMUSG00000034636_ENSMUST00000043616|mus_hu|FALSE|FALSE (ssRNA)
# RNA: GGGAGUUCUACAGUCCGACGAUCACUGUAGAAUCUCAAGCACAAGUAAGUUCAAACACUGAAAGAUGUGGAAAAUUUCCUAAAAGGCAAUGAUAAAGGAAGAGACCCUUCUUGACUCAUAAGUUUAAAAUCACAAGACAAAUUCAACAGAGGAUUGAGCAUCA
# B6: chr14:103802106:103802107:+_ENSG00000100664_ENST00000558506|perfect_dup|FALSE|FALSE (ssRNA)
# RNA: GGGAGUUCUACAGUCCGACGAUCGAGAUCUUUGAUUGCAACUUUUUGGUAUCUUCUGUCUGGAGAAGAAGGGAUGACAUAAACGACUGCAAGAGUUCUCGGUCUCUGACAUGAAAAAAUUUUCGCCACUGAGGCUGUAAGCUUCAACAGAGGAUUGAGCAUCA
# B7: chr18:56819859:56819860:+_ENSG00000166562_ENST00000588875|hu_mus|hu_hu_hu_mus_True|8_108 (ssRNA)
# RNA: GGGAGUUCUACAGUCCGACGAUCAACUUUGAUUACUCUGUGAACUAUCGGAAUGUCUCUUCCUUCAACCUUAAAAACAACUAUUUCACCAGCUCUGAUGGGGUCCUCCCGGAAAUUCGUGAGGAACAGGAGGUCUCCUCUGUGCAACAGAGGAUUGAGCAUCA
# B8: chr3:121486967:121486968:-_ENSMUSG00000028127_ENSMUST00000029770|mus_hu|motif|central (ssRNA)
# RNA: GGGAGUUCUACAGUCCGACGAUCUCCAAUUGCACUCGUUAACUUAAAGAUAUACAAAACUAUGUCUAAAAAUGGCUUACGGAGAUUUGAAUACAGAUCGACUACACUGUUACAAAAUUUUUCUACAUCUUGUGUAAGCAGCUGCAACAGAGGAUUGAGCAUCA
# B9: 107755505_107755625_722_5pUTR_ENSMUSG00000032582_ENSMUST00000035201|mouse|control|control (ssRNA)
# RNA: GGGAGUUCUACAGUCCGACGAUCAGGUCCCUCCCCUCCUUGAUAGUCACCAUGUGGUCCAUCUCUACCUCCAUAGCUGAAAGAAUGCUCCUCUACAUUUGCAAAGGGAGGUCCUGAAUGCCCCUGGAAAUCAAAGGGAAGUGACAACAGAGGAUUGAGCAUCA
# B10: chr1:39494564:39494565:+_ENSG00000168653_ENST00000372967|hu_hu|hu_hu_hu_mus_True|18_48 (ssRNA)
# RNA: GGGAGUUCUACAGUCCGACGAUCAUGCAUUCGCCUCAUCGUUUUGUACCGAAGCAAGCACUCUUCGAAGUCAUCGAACUCUAUCUUGCACUCUUUCUUCGCCCGGGUCCCACCGAUUCCAUGUGCACACUCUAUCCACUCUUUCAACAGAGGAUUGAGCAUCA
# B11: chr10:70731730:70731731:+_ENSG00000165732_ENST00000354185|hu_hu|FALSE|FALSE (ssRNA)
# RNA: GGGAGUUCUACAGUCCGACGAUCAACCUCAGGGAUGUCUAACCCACGUGCAGCAACAUUGGUUGCCACCAAAACUCCAAAACUACCAUUUCUAAAACCUUUCAGGGUGAUUUCCCUUUGCUUCUGUGGAAUGUCUCCAUGCAACAACAGAGGAUUGAGCAUCA
# B12: chr4:83978449:83978450:+_ENSG00000138663_ENST00000264389|hu_hu|motif|central (ssRNA)
# RNA: GGGAGUUCUACAGUCCGACGAUCUAUUGUCUUGUAAGAGAGCUCAUUGUACCUUUGUGCAGCUUCAAUGAAUUUUCUUCGGUAAUCAAGAACACGUGCAUAGCAUACCUUAUAAUGUAUCUGUAAUUGUUCAUUGGUUGAUUCCAACAGAGGAUUGAGCAUCA
# B13: chr16:57473197:57473198:-_ENSG00000005194_ENST00000569370|hu_mus|motif|central (ssRNA)
# RNA: GGGAGUUCUACAGUCCGACGAUCGAUCCGGGCCAUCUCAGCCAGAACCUCAGCACUGUGCAGAGAGGUGCUUCCUGGGACGGCACCCGACAGAAUGACAUCGAAGCUGGAUUCCUUAUGCGAAGACUGCAACAGCUGGGUGACCAACAGAGGAUUGAGCAUCA
# B14: chr8:117878989:117878990:-_ENSG00000164754_ENST00000297338|hu_hu|hu_hu_hu_mus_True|38_108 (ssRNA)
# RNA: GGGAGUUCUACAGUCCGACGAUCCCAGAGGCCCUCUUUUACUGAGGACAAAAUGUGCGUAGAACAUUUUUCUUAUUUGCUAUGAAAUAAGAAGAAAACCUUGCUCUGGCGGGGAGCCGGGAGGGGUGGGUGGCCCGGGGAGGGCAACAGAGGAUUGAGCAUCA
# B15: chr7:7679991:7679992:-_ENSG00000106399_ENST00000396682|hu_hu|hu_hu_hu_mus_False|8_38 (ssRNA)
# RNA: GGGAGUUCUACAGUCCGACGAUCUGGGAUGAAUCUUUUCCAGCUUCCCCACGAAGCACACGGGCCGGUCGAUAUACUGUGGUAACAUGCUGGCGUUGAUGCGCGACUUGGGGAGCUGCAUUAUGUCCACCAUGAUUCUGCCGCCAACAGAGGAUUGAGCAUCA
# B16: chr9:21312366:21312367:-_ENSMUSG00000032180_ENSMUST00000034698|mus_mus|motif|central (ssRNA)
# RNA: GGGAGUUCUACAGUCCGACGAUCAGGGUGGGGGGCAGCACCACAGCUUCACCCCAUCCUGAUAGCUGCAAGACUGAAGCGGAGGCACGAUUUCAGGAGAAAGCCAGGGCAUCCAAGAGCAGUGUCCCCACACUGCUGCGCCCACAACAGAGGAUUGAGCAUCA
# B17: chr4:25749455:25749456:-_ENSG00000091490_ENST00000264868|hu_hu|hu_hu_hu_mus_False|8_8 (ssRNA)
# RNA: GGGAGUUCUACAGUCCGACGAUCGCACUAUGACCUCUAGAAAAAUCCACAGGGGGAAAAAAUGUAAACCAAUGUACAAUGUUAUCGCCUUCCCUGUGUGUGGAGUGUUUGUCUCAAGGCUCCUUCUUGCCUUAUAAUUUGGGACAACAGAGGAUUGAGCAUCA
# B18: 123813400_123815043_1116_CDS_ENSG00000139697_ENST00000420886|human|control|control (ssRNA)
# RNA: GGGAGUUCUACAGUCCGACGAUCCACACUCCCAUUAUGUUUGGAAGAAAUUUUUCCGUAUUUAAACUUAUUUAACGAAUGAACCAAAAUGUUUUUUGCUCCAAUAUCCCUUAAAUCUCUUUCAGCAUCAUACUUUAAGUCAUUCAACAGAGGAUUGAGCAUCA
# B19: chr4:40680069:40680070:+_ENSMUSG00000028410_ENSMUST00000030118|mus_mus|motif|central (ssRNA)
# RNA: GGGAGUUCUACAGUCCGACGAUCAGUCAGAGCUUUUAUAUUUGUGUUUAUUCUUCAUUUAACUUUUUUUAAAACACGGCGGUAGUUGAAUAUUAAAACAAAAACAAUAGCCAAGUAGUGAGCUUAUUAUGAUUACAGUCCUUCCAACAGAGGAUUGAGCAUCA
# B20: chr12:73895003:73895004:+_ENSMUSG00000021096_ENSMUST00000021514|mus_mus|FALSE|FALSE (ssRNA)
# RNA: GGGAGUUCUACAGUCCGACGAUCUUCACUGAUAGUGAUUUUAAAGCAGUUCAUAAUUAAAUAUGAGCACUUUGUACAAGGACAAUUACACUUUACAAAAACCAAAAUCAUACAACAAAAAUUGCUGGAGUCUGAUUUACAACACAACAGAGGAUUGAGCAUCA
# B21: chr11:4127340:4127341:+_ENSG00000167325_ENST00000300738|hu_mus|hu_hu_hu_mus_False|28_28 (ssRNA)
# RNA: GGGAGUUCUACAGUCCGACGAUCGGCAUAGUCAGGGUGCUUCGUGGUCAAGGUCGCGGCUGUCUCAGCAGCCAGGGUGUCCAGUUCCACUGUGGUGACCCCACUAUACAAGCCUUGGAUUACUUUCAUGGUGAUCUGAGCAGGCAACAGAGGAUUGAGCAUCA
# B22: chr19:7302888:7302889:-_ENSMUSG00000024764_ENSMUST00000025675|mus_hu|FALSE|FALSE (ssRNA)
# RNA: GGGAGUUCUACAGUCCGACGAUCAAUUUCAAAUUGCAACGCUUCUCUGAAGAACUGGUAGGCACCAUGAUUGUGUUUAAAUACUGUUAACAUAACCUUCUUCAUCUGUGUGCUGUUGGCCAUGAGCUGCAGGAUCUGUAUGAGCAACAGAGGAUUGAGCAUCA
# Molecular target: T1, UNK ZnF1-3
# Test: nsRBNS (natural sequence RNA bind-n-seq); RBNS binding buffer (assumed for nsRBNS): 25 mM Tris pH 7.5, 150 mM KCl, 3 mM MgCl2, 0.01% Triton X-100, 500 ug/ml BSA, 20 U/ml SUPERase-In, 4 C; UNK is unkempt and MSI1 is Musashi-1; names of the RNAs are library labels; protein concentration not given here; high values mean tight binding
row,Binder,binding signal [enrichment R]
1,B1,1.11
2,B2,0.964
3,B3,1.07
4,B4,0.677
5,B5,1.06
6,B6,0.78
7,B7,0.671
8,B8,0.679
9,B9,1.18
10,B10,0.667
11,B11,0.951
12,B12,0.664
13,B13,0.995
14,B14,1.4
15,B15,0.394
16,B16,1.09
17,B17,0.867
18,B18,0.685
19,B19,1.4
20,B20,0.521
21,B21,1.01
22,B22,1.12
